{"source": "the supplement of paper PMC8728848", "binders": {"B1": {"name": "Gal 1 (Mus musculus), P16045 (protein)", "chain": "MACGLVASNLNLKPGECLKVRGEVASDAKSFVLNLGKDSNNLCLHFNPRFNAHGDANTIVCNTKEDGTWGTEHREPAFPFQPGSITEVCITFDQADLTIKLPDGHEFKFPNRLNMEAINYMAADGDFKIKCVAFE"}}, "assay_in_all_cases": "glycan array binding signal (z-score within array); higher = stronger binding", "conditions_in_all_cases": "glycan notation: IUPAC condensed, linker removed", "key": {"[1]": {"target": "Gal3S(b1-4)Glc6S", "method_in_brief": "(§1)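 The binding signal is a Z-score computed within each array and averaged over linkers. Arrays of the same protein sequence at different concentrations or buffers were also averaged together. Data originate from 3228 arrays in the Consortium for Functional Glycomics database, kept only where the protein sequence was available.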"}, "[2]": {"target": "Gal3S(b1-4)GlcNAc", "method_in_brief": "as §1"}, "[3]": {"target": "Gal3S(b1-4)GlcNAc6S", "method_in_brief": "as §1"}, "[4]": {"target": "Gal3S(b1-4)[Fuc(a1-3)]Glc", "method_in_brief": "as §1"}, "[5]": {"target": "Gal3S(b1-4)[Fuc(a1-3)]Glc6S", "method_in_brief": "as §1"}, "[6]": {"target": "Gal3S(b1-4)[Fuc(a1-3)]GlcNAc", "method_in_brief": "as §1"}, "[7]": {"target": "Gal3S(b1-4)[Fuc(a1-3)]GlcNAc6S", "method_in_brief": "as §1"}, "[8]": {"target": "Gal3S4S(b1-4)GlcNAc", "method_in_brief": "as §1"}, "[9]": {"target": "Gal3S6S(b1-4)GlcNAc", "method_in_brief": "as §1"}, "[10]": {"target": "Gal3S6S(b1-4)GlcNAc6S", "method_in_brief": "as §1"}, "[11]": {"target": "Gal4S(b1-4)GlcNAc", "method_in_brief": "as §1"}, "[12]": {"target": "Gal4S6S(b1-4)GlcNAc", "method_in_brief": "as §1"}, "[13]": {"target": "Gal6P(b1-4)GlcNAc", "method_in_brief": "as §1"}, "[14]": {"target": "Gal6S(b1-3)GlcNAc", "method_in_brief": "as §1"}, "[15]": {"target": "Gal6S(b1-3)GlcNAc6S", "method_in_brief": "as §1"}, "[16]": {"target": "Gal6S(b1-4)Glc", "method_in_brief": "as §1"}, "[17]": {"target": "Gal6S(b1-4)Glc6S", "method_in_brief": "as §1"}, "[18]": {"target": "Gal6S(b1-4)GlcNAc", "method_in_brief": "as §1"}, "[19]": {"target": "Gal6S(b1-4)GlcNAc6S", "method_in_brief": "as §1"}, "[20]": {"target": "GalNAc(a1-3)Gal", "method_in_brief": "as §1"}, "[21]": {"target": "GalNAc(a1-3)GalNAc", "method_in_brief": "as §1"}, "[22]": {"target": "GalNAc(a1-3)GalNAc(a1-3)Gal(a1-4)Gal(b1-4)GlcNAc", "method_in_brief": "as §1"}, "[23]": {"target": "GalNAc(a1-3)GalNAc(b1-3)Gal(a1-4)Gal(b1-4)Glc", "method_in_brief": "as §1"}, "[24]": {"target": "GalNAc(a1-3)GalNAc(b1-3)Gal(a1-4)Gal(b1-4)GlcNAc", "method_in_brief": "as §1"}, "[25]": {"target": "GalNAc(b1-3)Gal", "method_in_brief": "as §1"}, "[26]": {"target": "GalNAc(b1-3)Gal(a1-4)Gal(b1-4)GlcNAc", "method_in_brief": "as §1"}, "[27]": {"target": "GalNAc(b1-3)Gal(a1-4)Gal(b1-4)GlcNAc(b1-3)Gal(b1-4)Glc", "method_in_brief": "as §1"}, "[28]": {"target": "GalNAc(b1-3)Gal(a1-6)Gal(b1-4)Glc", "method_in_brief": "as §1"}, "[29]": {"target": "GalNAc(b1-3)GalNAc", "method_in_brief": "as §1"}, "[30]": {"target": "GalNAc(b1-3)GlcNAc", "method_in_brief": "as §1"}, "[31]": {"target": "GalNAc(b1-4)Gal(b1-4)Glc", "method_in_brief": "as §1"}, "[32]": {"target": "GalNAc(b1-4)GlcNAc", "method_in_brief": "as §1"}, "[33]": {"target": "GalNAc(b1-4)GlcNAc(b1-2)Man", "method_in_brief": "as §1"}, "[34]": {"target": "GalNAc(b1-4)GlcNAc(b1-2)Man(a1-3)[GalNAc(b1-4)GlcNAc(b1-2)Man(a1-6)]Man(b1-4)GlcNAc(b1-4)GlcNAc", "method_in_brief": "as §1"}, "[35]": {"target": "GalNAc(b1-4)GlcNAc(b1-3)GalNAc(b1-4)GlcNAc", "method_in_brief": "as §1"}, "[36]": {"target": "GalNAc(b1-4)GlcNAc6S", "method_in_brief": "as §1"}, "[37]": {"target": "GalNAc(b1-6)GalNAc", "method_in_brief": "as §1"}, "[38]": {"target": "GalNAc3S(b1-4)GlcNAc", "method_in_brief": "as §1"}, "[39]": {"target": "GalNAc3S(b1-4)GlcNAc3S", "method_in_brief": "as §1"}, "[40]": {"target": "GalNAc3S(b1-4)[Fuc(a1-3)]GlcNAc", "method_in_brief": "as §1"}, "[41]": {"target": "GalNAc4S6S(b1-4)GlcNAc", "method_in_brief": "as §1"}, "[42]": {"target": "GalNAc6S(b1-4)GlcNAc", "method_in_brief": "as §1"}, "[43]": {"target": "Glc(a1-4)Glc", "method_in_brief": "as §1"}, "[44]": {"target": "Glc(a1-4)Glc(a1-4)Glc(a1-4)Glc", "method_in_brief": "as §1"}, "[45]": {"target": "Glc(a1-6)Glc(a1-6)Glc", "method_in_brief": "as §1"}}, "note": "The other results are listed elsewhere or left out."}
{"binder": "B1", "values": [{"measurement": "glycan array binding signal (z-score)", "setting": "[1]", "value": 0.672}, {"measurement": "glycan array binding signal (z-score)", "setting": "[2]", "value": 0.745}, {"measurement": "glycan array binding signal (z-score)", "setting": "[3]", "value": 0.979}, {"measurement": "glycan array binding signal (z-score)", "setting": "[4]", "value": -0.01}, {"measurement": "glycan array binding signal (z-score)", "setting": "[5]", "value": -0.178}, {"measurement": "glycan array binding signal (z-score)", "setting": "[6]", "value": -0.502}, {"measurement": "glycan array binding signal (z-score)", "setting": "[7]", "value": 2.69}, {"measurement": "glycan array binding signal (z-score)", "setting": "[8]", "value": 1.89}, {"measurement": "glycan array binding signal (z-score)", "setting": "[9]", "value": 0.1}, {"measurement": "glycan array binding signal (z-score)", "setting": "[10]", "value": -0.199}, {"measurement": "glycan array binding signal (z-score)", "setting": "[11]", "value": -0.247}, {"measurement": "glycan array binding signal (z-score)", "setting": "[12]", "value": 0.046}, {"measurement": "glycan array binding signal (z-score)", "setting": "[13]", "value": -0.332}, {"measurement": "glycan array binding signal (z-score)", "setting": "[14]", "value": -0.455}, {"measurement": "glycan array binding signal (z-score)", "setting": "[15]", "value": -0.324}, {"measurement": "glycan array binding signal (z-score)", "setting": "[16]", "value": -0.195}, {"measurement": "glycan array binding signal (z-score)", "setting": "[17]", "value": -0.089}, {"measurement": "glycan array binding signal (z-score)", "setting": "[18]", "value": -0.395}, {"measurement": "glycan array binding signal (z-score)", "setting": "[19]", "value": -0.311}, {"measurement": "glycan array binding signal (z-score)", "setting": "[20]", "value": -0.163}, {"measurement": "glycan array binding signal (z-score)", "setting": "[21]", "value": -0.241}, {"measurement": "glycan array binding signal (z-score)", "setting": "[22]", "value": -0.329}, {"measurement": "glycan array binding signal (z-score)", "setting": "[23]", "value": -0.428}, {"measurement": "glycan array binding signal (z-score)", "setting": "[24]", "value": -0.419}, {"measurement": "glycan array binding signal (z-score)", "setting": "[25]", "value": -0.328}, {"measurement": "glycan array binding signal (z-score)", "setting": "[26]", "value": -0.41}, {"measurement": "glycan array binding signal (z-score)", "setting": "[27]", "value": -0.372}, {"measurement": "glycan array binding signal (z-score)", "setting": "[28]", "value": -0.278}, {"measurement": "glycan array binding signal (z-score)", "setting": "[29]", "value": 0.038}, {"measurement": "glycan array binding signal (z-score)", "setting": "[30]", "value": -0.343}, {"measurement": "glycan array binding signal (z-score)", "setting": "[31]", "value": -0.088}, {"measurement": "glycan array binding signal (z-score)", "setting": "[32]", "value": -0.332}, {"measurement": "glycan array binding signal (z-score)", "setting": "[33]", "value": -0.303}, {"measurement": "glycan array binding signal (z-score)", "setting": "[34]", "value": -0.127}, {"measurement": "glycan array binding signal (z-score)", "setting": "[35]", "value": -0.415}, {"measurement": "glycan array binding signal (z-score)", "setting": "[36]", "value": -0.452}, {"measurement": "glycan array binding signal (z-score)", "setting": "[37]", "value": -0.395}, {"measurement": "glycan array binding signal (z-score)", "setting": "[38]", "value": -0.413}, {"measurement": "glycan array binding signal (z-score)", "setting": "[39]", "value": -0.244}, {"measurement": "glycan array binding signal (z-score)", "setting": "[40]", "value": -0.454}, {"measurement": "glycan array binding signal (z-score)", "setting": "[41]", "value": -0.26}, {"measurement": "glycan array binding signal (z-score)", "setting": "[42]", "value": -0.484}, {"measurement": "glycan array binding signal (z-score)", "setting": "[43]", "value": -0.341}, {"measurement": "glycan array binding signal (z-score)", "setting": "[44]", "value": -0.076}, {"measurement": "glycan array binding signal (z-score)", "setting": "[45]", "value": -0.157}]}
